# Assay results published in publication PMC12040169 (PLOS Biology, 2025).
# The other results are listed elsewhere or left out.
# System: T1, C. trachomatis L2/434/Bu expressing GFP (CTL2-GFP)
# T1 construct: L2/434/Bu GFP intracellular growth in HeLa cells
# Parameters: species or system HeLa; C. trachomatis total inclusion area by high-content imaging, normalised to DMSO
# Conditions: total inclusion area; 28.5 h, 10 µM; inhibitor
# Summary of the method: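 High-content images of fixed, Hoechst-stained infected cultures supply inclusion area and count (growth) plus nuclei number (viability), complementing bulk GFP/resorufin fluorescence. MIC determination is unchanged from the primary assay.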
row,SMILES,% of control remaining
1,O=c1ccc2c(-c3ccccc3)ccnc2[nH]1 [CBK073723],95.1015
2,Cc1cc(C)c(S(=O)(=O)Nc2nnc(C(C)C)s2)c(C)c1 [CBK045516],85.7379
3,Cc1nc(COc2ccc(F)cc2)sc1C(=O)O [CBK305074],68.0569
4,CN1CCN(C(=O)c2ccc(Cl)c(S(=O)(=O)N3CCCCC3)c2)CC1 [CBK262228],94.7658
5,CCCC/C=C/c1cc(NCCc2ccccn2)n2nccc2n1 [CBK037155],81.8456
6,O=C(C1CCCO1)N1C2CCC1CC(O)(c1ccco1)C2 (centres unmarked) [CBK284035],111.778
7,NS(=O)(=O)c1ccc(CCNC(=O)C2c3ccccc3Oc3ccccc32)cc1 [CBK264389],118.118
8,O=C(Nc1cccnc1)c1ccc(CN2CCC(Cc3ccccc3)CC2)cc1 [CBK264095],89.7707
9,O=C(O)CCN1CCn2c3c(c4cc(C5CCCCC5)ccc42)CCCC31 (centres unmarked) [CBK263236],78.4551
10,O=C(Cc1ccccc1)N1CCC(CC(=O)N2CCC3(CCCCC3)C2)CC1 [CBK286031],120.949
11,CS(=O)(=O)Nc1ccc(CNC(=O)C2(c3ccccc3)CCCC2)cc1 [CBK161525],99.8098
12,Cn1c(CN2CCCC2)nc2cc(NC(=O)c3cccc([N+](=O)[O-])c3)ccc21 [CBK268316],93.0521
13,O=[N+]([O-])c1ccc(NCCNCCO)c(Cl)c1 [CBK261006],90.8229
14,CN1CCN(C(=O)c2cccc(-c3nc(-c4ccc(C#N)cc4)cnc3N)c2)CC1 [CBK064144],77.5637
15,Cc1ccc(S(=O)(=O)Nc2cccc(C(=O)O)c2)cc1 [CBK038891],98.5495
16,O=C(NC1CCN(Cc2ccccc2)C1)c1ccc(F)cc1 (centres unmarked) [CBK283044],82.4973
17,Oc1cccc(-c2nccnc2NCCc2ccccn2)c1 [CBK037388],117.23
18,O=C(NCc1ccccn1)C1CCN(S(=O)(=O)c2ccc(Cl)cc2)CC1 [CBK264959],100.158
19,N#Cc1ccccc1CSc1nc(N)cc(O)n1 [CBK267967],116.321
20,Cc1cc(NC(=O)CN2CCN(c3ccc(F)cc3)CC2)nc2c1c(=O)oc1ccccc12 [CBK291232],115.555
21,Cc1ccccc1OCCn1c(=N)n(CC(C)C)c2ccccc21 [CBK265392B],71.5686

row,SMILES,% of control remaining
1,FC(F)(F)c1cccnc1OCCNc1ccccc1 [CBK115822],112.321
2,Brc1cn2c(-c3ccccc3)cnc2c(N2CCCC2)n1 [CBK091488],73.2097
3,O=C(NCCCC1CCOC1)c1cnn(-c2ccc(F)cc2)c1 (centres unmarked) [CBK283288],100.345
4,Cc1cnc(NC(=O)N2CCOC(c3ccc(F)cc3F)C2)s1 (centres unmarked) [CBK304126],44.8542
5,N#Cc1nc(/C=C/c2cccs2)oc1NCCCn1ccnc1 [CBK269455],70.0443
6,O=C(O)COc1ccc(S(=O)(=O)N2CCCc3ccccc32)cc1 [CBK269935],80.1912
7,O=C(O)CS(=O)(=O)c1ccccc1C(=O)O [CBK261083],96.4246
8,COC(=O)c1c(NC(=O)C2CC(=O)NN2C)sc2c1CCC2 (centres unmarked) [CBK269218A],121.308
9,COc1ccc(CCN2CCC(Oc3nccnc3OCCN3C(=O)CCC3=O)CC2)cc1OC [CBK084359],84.791
10,CCCC/C=C/c1nccnc1NCc1ccncc1 [CBK037500],67.2026
11,Nc1c(-c2ccsc2)cnc2cccnc12 [CBK081208],101.438
12,CC(C)c1[nH]c2ncccc2c1CN1CCSCC1 [CBK285312],78.0245
13,COc1ccccc1-c1nc(C2CCCN2C(=O)CCCC(=O)O)n2ccccc12 (centres unmarked) [CBK046600],109.712
14,CN(C)CCN(C)c1cc(-c2cccc(Br)c2)nc2ccnn12 [CBK037140],60.8054
15,O=c1ccc2c(-c3cccc(OCc4ccccc4)c3)ccnc2[nH]1 [CBK073739],74.2955
16,Cc1ccc(OCC(=O)NC(Cc2ccccc2)C(=O)O)cc1 (centres unmarked) [CBK217681],97.9749
17,O=C(c1ccc2[nH]ccc2c1)N1CCc2ccccc21 [CBK200269],88.023
18,CCOC(=O)C1=C(C)N(CC)C(=O)NC1c1cc(OC)c(OC)c(OC)c1 (centres unmarked) [CBK091912],92.5287
19,CC1CN(CCCCNCc2cn(C)nc2-c2cccnc2)CC(C)O1 (centres unmarked) [CBK304453],54.0161
20,COCc1cc(C[C@H]2CNCC[C@H]2CC(=O)N2CCCCC2)no1 [CBK288899],87.4883
